# In the supplement of paper PMC3334620:
# Over roughly 33,000 sequences, “E-score (-0.5 to 0.5)” has its median near -0.021; the highest 2% begin near 0.32. The list shows a part of the results.
# Target: T1, Zap1 (UniProt P47043)
# T1 sequence: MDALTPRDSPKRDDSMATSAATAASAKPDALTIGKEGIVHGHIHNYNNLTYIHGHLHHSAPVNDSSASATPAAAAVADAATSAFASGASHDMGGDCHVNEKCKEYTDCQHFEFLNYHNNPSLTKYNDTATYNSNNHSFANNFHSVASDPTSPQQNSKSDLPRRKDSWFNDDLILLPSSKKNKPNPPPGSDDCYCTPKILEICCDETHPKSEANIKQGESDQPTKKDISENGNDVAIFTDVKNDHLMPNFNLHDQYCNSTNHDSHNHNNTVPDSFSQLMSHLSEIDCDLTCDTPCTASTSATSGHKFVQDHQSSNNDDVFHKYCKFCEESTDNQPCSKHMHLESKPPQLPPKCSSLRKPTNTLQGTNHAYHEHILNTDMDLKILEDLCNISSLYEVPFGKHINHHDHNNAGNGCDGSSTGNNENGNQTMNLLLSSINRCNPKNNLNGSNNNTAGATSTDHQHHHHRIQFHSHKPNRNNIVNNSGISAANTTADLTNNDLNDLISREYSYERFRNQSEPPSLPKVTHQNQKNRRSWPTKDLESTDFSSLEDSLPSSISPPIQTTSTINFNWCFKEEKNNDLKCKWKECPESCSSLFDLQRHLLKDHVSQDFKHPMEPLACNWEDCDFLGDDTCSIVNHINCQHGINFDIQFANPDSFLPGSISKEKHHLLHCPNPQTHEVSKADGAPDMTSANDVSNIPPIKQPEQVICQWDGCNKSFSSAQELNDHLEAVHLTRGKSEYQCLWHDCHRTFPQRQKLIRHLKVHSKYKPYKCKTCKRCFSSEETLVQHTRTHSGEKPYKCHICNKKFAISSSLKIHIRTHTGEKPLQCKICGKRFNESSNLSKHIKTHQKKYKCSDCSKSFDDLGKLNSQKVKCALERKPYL
# Assay: PBM E-score (8-mer binding enrichment) (E-score (-0.5 to 0.5)); higher = stronger / more preferred TF binding; most listed sequences are background and not binding sites
# Settings: protein concentration: 200 nM; construct: GST-full length
# Outline: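 Each ungapped eight-base word and its reverse complement, pooled, received an E-score from the Universal PBM Analysis Suite. Underlying scans, normalised with masliner, recorded fluorescent anti-GST bound to GST-tagged yeast transcription factors. These were applied at about 100-200 nM to universal all-10-mer Agilent arrays double-stranded by primer extension.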
row,Sequence,PBM E-score
1,ACTGATGC,-0.134
2,AGTGTCTG,-0.0406
3,CCTCTCTC,-0.171
4,CATAATCA,0.14
5,ACCCGGTC,-0.0272
6,ACTTATTC,0.02
7,AAGCTTCG,-0.0255
8,GCAGATCC,-0.296
9,CCACATTC,0.074
10,AGGGGGCC,-0.103
11,CATTAGCA,-0.0213
12,TGACCTAA,0.315
13,CTTTCCGC,-0.159
14,AGGTGACT,0.0717
15,ATCCTGTG,-0.127
16,CCAGTCGG,-0.0944
17,GATAGACA,-0.068
18,AATAATTA,0.169
19,ATGGGCGG,-0.125
20,AAGTATGG,0.158
21,ATTAGTAC,0.0269
22,CTAAGATC,0.151
23,AGCGTTTC,-0.249
24,CCCAATAG,0.118
25,GGTAGGTA,0.205

row,Sequence,PBM E-score
1,GCGTCCGA,-0.0869
2,AGCCTTTG,-0.132
3,ACAGCCGA,-0.124
4,AACGGAAT,0.114
5,CGCGCTAA,0.217
6,GAATGTAA,0.109
7,CGAGCACA,0.0462
8,ATTCCAAC,0.0852
9,GCCCGGCC,-0.163
10,GGCGGATA,-0.153
11,AAACATTC,-0.164
12,AGCCGGAA,0.0285
13,AGATTAGG,-0.103
14,GCCAACCA,-0.0675
15,CGTGCGTA,-0.12
16,ACGTAGCA,-0.0271
17,CGCCTTCC,-0.11
18,AAGGTTAA,0.415
19,CGACGACC,0.0298
20,AGGAGGCC,-0.155
21,CTCGGGTC,0.203
22,GAATATAA,0.0263
23,CGGTAATA,0.219
24,ATAGCTTC,-0.213
25,GATACTAC,0.0357

row,Sequence,PBM E-score
1,AACTATTG,0.136
2,AAGCCATT,-0.001
3,TTACGAAA,0.234
4,AGTAACCC,0.443
5,CCCAAAGC,-0.0932
6,CCTCTCCG,-0.186
7,AGTGACAA,0.183
8,AGTAGGCA,-0.159
9,ACGACTCG,-0.134
10,TCACGACA,-0.163
11,AGATGAGG,-0.123
12,GAAACCTC,0.189
13,AGGAGTGC,-0.29
14,CAGGTAAC,0.254
15,CGTATCTA,-0.0738
16,ACAGAAAC,0.185
17,CGATATCG,0.15
18,CCCTCAAC,-0.111
19,AGCTCTCG,-0.212
20,ATCTGACA,-0.133
21,CCATGTAG,-0.0501
22,AATGCCCT,-0.108
23,AAGAAAGA,-0.032
24,GGTGCCGA,0.172
25,CTAGAAAC,0.197

row,Sequence,PBM E-score
1,TGATCGCA,-0.0837
2,ACGGTCGG,-0.0383
3,GATCGGGA,-0.364
4,CTAAATAG,0.107
5,AGTCAATG,-0.0253
6,AGGGGAAG,-0.123
7,CCTGTGTC,-0.0773
8,CGTAGTAC,-0.0537
9,CCGCTCAA,-0.0222
10,AGACACTG,-0.11
11,GCCTCCGA,-0.184
12,ATCAGCGC,-0.0947
13,CTGCATCA,-0.0217
14,AAAGGGGT,0.32
15,CCTACTTC,-0.12
16,ATATACAC,0.0421
17,AACAACGG,-0.024
18,CAAGACTC,-0.0977
19,CATCGCGA,0.164
20,CCGGTCAA,0.019
21,CGGCACCC,0.126
22,ATAAGGCG,-0.121
23,CGGTCAAA,0.207
24,GGAGGAAC,-0.219
25,AGCTCAAA,0.116

row,Sequence,PBM E-score
1,CGACGTGA,-0.121
2,ATCTCAAG,0.143
3,AGGCTTGA,-0.11
4,CAGGTGGC,0.0105
5,ATAGTTGC,0.135
6,ACCAGCCG,0.108
7,ACTTGAAT,0.006
8,CGACCTCC,0.0537
9,CGTAGTCA,-0.126
10,TACAGAAA,0.123
11,CCAGTTCA,-0.108
12,GAGGATAC,-0.196
13,CCTCAGTA,-0.198
14,AATCATTA,-0.0155
15,GACAACTC,-0.0129
16,ACCCCCTC,-0.0959
17,CCATGGTC,0.208
18,ATGCAGAG,-0.113
19,ATGGCGAA,-0.0663
20,GGCTGAGA,-0.101
21,AAAAACAA,0.111
22,CGTCCTCA,-0.162
23,GTACCGAA,0.174
24,GGGATCGA,-0.0434
25,ACGAATTC,0.0141

row,Sequence,PBM E-score
1,CGCACCAA,-0.119
2,ACCGTACC,0.0466
3,CAGCCCCC,-0.304
4,CTGGGAGA,-0.111
5,AGCTGGGG,-0.0647
6,CCCCCGGC,-0.231
7,ATATGGAG,-0.0641
8,GATCCCGA,-0.0745
9,GTCCATCA,-0.00532
10,AGGTCCCG,-0.0103
11,GTAAGGCA,-0.208
12,CACGGCTG,-0.212
13,ACAAGTGG,-0.0149
14,CGATGAAC,0.0575
15,CCTCGCGA,0.0889
16,AGGCGGTC,-0.0549
17,ACATGCAA,-0.179
18,ATCCGTAC,0.0269
19,CTTAAACC,0.17
20,GACAATCA,-0.0629
21,CGAGTAAG,0.119
22,CACGTGGC,-0.172
23,CCTGTTTA,0.00701
24,GGCCCACA,0.0191
25,GGACCACC,0.142

row,Sequence,PBM E-score
1,CTTCAAAC,0.213
2,AGCTAGTA,0.029
3,GCGATGAA,-0.0319
4,AGTATTTA,0.0344
5,AGCTAGCT,-0.0684
6,GAGGAGGC,-0.29
7,AACACGGT,-0.00377
8,ATGGTAGA,-0.00844
9,CTGAAACA,0.0192
10,AACAAATT,0.262
11,CGATGTAG,-0.241
12,CTTTCTTC,-0.0581
13,CTAACGGA,0.109
14,GGAACATA,0.0158
15,AGAAATAC,-0.0369
16,AGGATACG,-0.1
17,AGCATGGG,-0.00439
18,GAATGAGA,-0.305
19,AATGTGCA,-0.0139
20,AAGTTTCC,-0.0473
21,TTGCGAAA,0.179
22,GGAGTGCA,-0.216
